In the GPR68 mutational scans of Howard et al. (2025):
Scores with a large standard error are left out. Not listed are two conditions whose scores span a narrow range. Names with del lack the residues named; names with ins carry added residues between the positions named. For part of these data: The concentration of ogerin is not given here.

B1: GPR68, Q15743 (parent)
chain: MGNITADNSSMSCTIDHTIHQTLAPVVYVTVLVVGFPANCLSLYFGYLQIKARNELGVYLCNLTVADLFYICSLPFWLQYVLQHDNWSHGDLSCQVCGILLYENIYISVGFLCCISVDRYLAVAHPFRFHQFRTLKAAVGVSVVIWAKELLTSIYFLMHEEVIEDENQHRVCFEHYPIQAWQRAINYYRFLVGFLFPICLLLASYQGILRAVRRSHGTQKSRKDQIQRLVLSTVVIFLACFLPYHVLLLVRSVWEASCDFAKGVFNAYHFSLLLTSFNCVADPVLYCFVSETTHRDLARLRGACLAFLTCSRTGRAREAYPLGAPEASGKSGAQGEEPELLTKLHPAFQTPNSPGSGGFPTGRLA

Columns and labels:
[1] = variants of: B1; assay: cAMP reporter score (Enrich2 score, wild type = 0); higher = more signal; HEK293T, FACS bins
[2] = variants of: B1; assay: surface expression score (Enrich2 score, wild type = 0); higher = more signal; HEK293T, FACS bins

Variant | cAMP reporter score ([1]; pH 5.5) | cAMP reporter score ([1]; pH 6) | cAMP reporter score ([1]; pH 6, modulator: ogerin) | cAMP reporter score ([1]; pH 6.5, modulator: ogerin) | surface expression score [2]
V139F | 0.824 | 0.202 | 0.47 | -0.897 | -0.017
V139G | 0.625 | -0.422 | -0.575 | -0.49 | -2.17
V139H | -2.42 | -0.785 | -1.4 | -2.06 | -2.73
V139I | -0.223 | – | 0.126 | 0.063 | -0.561
V139L | -0.657 | -0.534 | -0.803 | -0.832 | -0.821
V139M | -1.65 | -0.95 | -1.41 | -1.33 | -1.59
V139N | -0.822 | -0.782 | -0.675 | -1.35 | –
V139P | -1.04 | 0.041 | -1.46 | – | -2.4
V139Q | -1.22 | -0.438 | -0.401 | -1.04 | -1.56
V139R | -0.385 | 2.38 | -0.048 | -0.426 | –
V139S | -0.073 | – | -0.337 | -0.787 | -1.19
V139T | -0.365 | -0.214 | 0.234 | – | -0.879
V139W | 0.408 | – | 0.919 | 1.1 | 0.962
V139Y | -0.105 | 0.069 | 0.151 | -0.538 | -0.496
V139_G140insG | -1.49 | -1.33 | -1.26 | -1.18 | -2.77
V139_G140insGSG | -0.336 | -0.771 | -1.86 | -1.81 | -1.61

Variant | cAMP reporter score ([1]; pH 5.5) | cAMP reporter score ([1]; pH 6) | cAMP reporter score ([1]; pH 6, modulator: ogerin) | cAMP reporter score ([1]; pH 6.5, modulator: ogerin) | surface expression score [2]
V141C | 0.076 | -0.355 | -0.704 | -0.651 | -1.03
V141D | -1.42 | -0.939 | – | -0.668 | –
V141F | -1.01 | -1.82 | -0.992 | -1.65 | -1.12
V141G | -1.2 | -1.27 | -1.63 | – | -2.76
V141H | -1.25 | -1.17 | -1.75 | -0.958 | -2.54
V141I | 1.12 | 1.14 | 0.995 | 0.786 | 0.65
V141K | -1.14 | -0.752 | -3.21 | -1.33 | -2.03
V141L | -0.836 | -0.395 | -0.817 | -1.26 | -1.35
V141M | 0.797 | – | -0.95 | 0.677 | -0.424
V141N | -0.098 | -0.633 | -0.309 | -0.765 | -1.85
V141P | -2.03 | -1.87 | -1.36 | -0.237 | -1.82
V141Q | -0.974 | -1.73 | -0.405 | -1.46 | -2.35
V141S | -0.109 | – | -0.97 | -0.172 | –
V141T | -0.158 | -1.21 | -0.561 | -1.31 | -0.821
V141W | -0.74 | -1.18 | -1.01 | -1.9 | –
V141Y | -1.44 | – | -1.93 | -0.895 | –
